Source: paper PMC4624786
No constants are given. Whether binding was seen depends on the method and setting. In cells and extracts the contact can be indirect. Some binding calls cover weakened binding; strength is not graded here. Where a sequence is shown, tags or fusion partners need not be part of it.

Biological target: T1, N-terminal cytoplasmic domain of NBCe1-B (residues 1–468) fused to maltose-binding protein (UniProt Q9Y6R1)
T1 sequence: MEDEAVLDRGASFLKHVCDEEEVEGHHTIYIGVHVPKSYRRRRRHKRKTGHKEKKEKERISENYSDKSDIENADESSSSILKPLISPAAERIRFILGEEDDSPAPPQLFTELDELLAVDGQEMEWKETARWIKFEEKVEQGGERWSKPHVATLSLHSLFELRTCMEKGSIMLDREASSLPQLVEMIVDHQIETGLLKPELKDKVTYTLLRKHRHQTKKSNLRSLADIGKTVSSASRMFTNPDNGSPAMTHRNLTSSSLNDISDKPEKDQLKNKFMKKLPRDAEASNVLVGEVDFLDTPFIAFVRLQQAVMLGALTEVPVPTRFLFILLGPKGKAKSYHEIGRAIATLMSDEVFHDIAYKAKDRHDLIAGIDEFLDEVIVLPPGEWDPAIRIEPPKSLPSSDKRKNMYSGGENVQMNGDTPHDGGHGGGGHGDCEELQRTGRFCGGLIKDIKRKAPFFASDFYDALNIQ
Assay: pull-down; COS-7 cell lysates (myc-PIPKIα or myc-PIPKIIα with or without HA-IRBIT) incubated with 5 μg MBP fusion protein for 1 hr at 4°C, amylose resin, washed with lysis buffer, eluted with 100 mM maltose; Western blot; only the target purified

B1: myc-tagged phosphatidylinositol phosphate kinase type IIα (enzyme, UniProt Q9R0I8 1-406)
chain: MATPSNLGSSVLASKTKTKKKHFVAQKVKLFRASDPLLSVLMWGVNHSINELSHVQIPVMLMPDDFKAYSKIKVDNHLFNKENMPSHFKFKEYCPMVFRNLRERFGIDDQDFQNSLTRSAPLPNDSQARSGARFHTSYDKRYVIKTITSEDVAEMHNILKKYHQYIVECHGVTLLPQFLGMYRLNVDGVEIYVIVTRNVFSHRLSVYRKYDLKGSTVAREASDKEKAKELPTLKDNDFINEGQKIYIDDSNKKIFLEKLKKDVEFLAQLKLMDYSLLVGIHDVERAEQEEVECEENEGEEEGESDGAHPIGTPPDSPGNTLNSSPPLAPGEFDPNIDVYAIKCHENAPRKEVYFMAIIDILTHYDAKKKAAHAAKTVKHGAGAEISTVNPEQYSKRFLDFIGHILT
binding: binds
